Results: the supplement of paper PMC9151546
Many values rest on one well or one pass, so single values are uncertain.

Key:
CHO-K1 [1] = assay: hypodiploid nuclei frequency (% of nucleated events); higher = more hypodiploid events (aneugenic)
Experimental: (§1)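 Flow-cytometric in vitro micronucleus assay (Litron MicroFlow) in CHO-K1 cells in 96-well plates, 19 concentrations (4.5-200 µM, n=1 per concentration). Without S9, cells were exposed for 24 h and sampled at 48 h. With Aroclor 1254-induced rat liver S9, cells were exposed for 3-4 h and sampled at 27-28 h. Read-outs are %MN and %hypodiploid nuclei relative to nucleated events, and relative survival as the nuclei-to-bead ratio versus the 1% DMSO vehicle control (x100).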

CHO-K1 [2] = assay: relative survival (nuclei to bead ratio vs DMSO control) (% of vehicle control); higher = more surviving cells
Experimental: as §1

CHO-K1 [3] = assay: micronucleus frequency (% of nucleated events); higher = more micronuclei (genotoxic)
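Throughout, for hypodiploid nuclei frequency (% of nucleated events): hypodiploid nuclei gated on a flow cytometer with 488 nm excitation after SYTOX Green staining, cultures at 37 °C, positive controls vinblastine without S9 and cyclophosphamide with S9.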
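Throughout, for micronucleus frequency (% of nucleated events): cells lysed with nuclei stained by SYTOX Green, then micronucleus-gated events counted against nucleated events by flow cytometry with 488 nm excitation.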
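Throughout, for relative survival (nuclei to bead ratio vs DMSO control): Lysed-cell nuclei stained with SYTOX Green and counted against counting beads by flow cytometry at 488 nm excitation, with vinblastine (no S9) and cyclophosphamide (plus S9) as positive controls.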

CN(C)c1ccc(Cc2ccc(N(C)C)cc2)cc1 [4,4'-Methylenebis(N,N-dimethylaniline)]
Conditions | hypodiploid nuclei frequency, CHO-K1 [1] [%] | micronucleus frequency, CHO-K1 [3] [%] | relative survival, CHO-K1 [2]
concentration: 4.5 (µM), S9 metabolic activation: with S9, exposure time: 3-4 hours | 0.2 | 0.66 | 115
concentration: 4.5 (µM), S9 metabolic activation: without S9, exposure time: 24 hours | 0.58 | 1.12 | 112
concentration: 5.63 (µM), S9 metabolic activation: with S9, exposure time: 3-4 hours | 0.08 | 1.08 | 83.4
concentration: 5.63 (µM), S9 metabolic activation: without S9, exposure time: 24 hours | 0.34 | 1.1 | 107
concentration: 7.04 (µM), S9 metabolic activation: with S9, exposure time: 3-4 hours | 0.28 | 0.86 | 85.4
concentration: 7.04 (µM), S9 metabolic activation: without S9, exposure time: 24 hours | 0.5 | 0.94 | 113
concentration: 8.8 (µM), S9 metabolic activation: with S9, exposure time: 3-4 hours | 0.18 | 0.76 | 88.4
concentration: 8.8 (µM), S9 metabolic activation: without S9, exposure time: 24 hours | 0.52 | 1.16 | 98
concentration: 11 (µM), S9 metabolic activation: with S9, exposure time: 3-4 hours | 0.27 | 0.79 | 80.7
concentration: 11 (µM), S9 metabolic activation: without S9, exposure time: 24 hours | 0.52 | 1.24 | 117
concentration: 13.7 (µM), S9 metabolic activation: with S9, exposure time: 3-4 hours | 0.34 | 0.9 | 78.8
concentration: 13.7 (µM), S9 metabolic activation: without S9, exposure time: 24 hours | 0.5 | 1.16 | 122
concentration: 17.2 (µM), S9 metabolic activation: with S9, exposure time: 3-4 hours | 0.28 | 1.18 | 83.2
concentration: 17.2 (µM), S9 metabolic activation: without S9, exposure time: 24 hours | 0.7 | 1.26 | 116
concentration: 21.5 (µM), S9 metabolic activation: with S9, exposure time: 3-4 hours | 0.1 | 0.88 | 87.3
concentration: 21.5 (µM), S9 metabolic activation: without S9, exposure time: 24 hours | 0.64 | 1.08 | 158
concentration: 26.8 (µM), S9 metabolic activation: with S9, exposure time: 3-4 hours | 0.22 | 0.84 | 60.3
concentration: 26.8 (µM), S9 metabolic activation: without S9, exposure time: 24 hours | 0.8 | 1.34 | 86.2
concentration: 33.6 (µM), S9 metabolic activation: with S9, exposure time: 3-4 hours | 0.2 | 0.74 | 89
concentration: 33.6 (µM), S9 metabolic activation: without S9, exposure time: 24 hours | 0.5 | 1.3 | 98.3
concentration: 41.9 (µM), S9 metabolic activation: with S9, exposure time: 3-4 hours | 0.14 | 1.24 | 85.2
concentration: 41.9 (µM), S9 metabolic activation: without S9, exposure time: 24 hours | 0.68 | 0.92 | 88
concentration: 52.4 (µM), S9 metabolic activation: with S9, exposure time: 3-4 hours | 0.18 | 1.23 | 71.9
concentration: 52.4 (µM), S9 metabolic activation: without S9, exposure time: 24 hours | 0.6 | 1.34 | 85.1
concentration: 65.5 (µM), S9 metabolic activation: with S9, exposure time: 3-4 hours | 0.22 | 1.22 | 59.4
concentration: 65.5 (µM), S9 metabolic activation: without S9, exposure time: 24 hours | 1.08 | 1.4 | 76.6
concentration: 81.9 (µM), S9 metabolic activation: with S9, exposure time: 3-4 hours | 0.35 | 1.47 | 56.2
concentration: 81.9 (µM), S9 metabolic activation: without S9, exposure time: 24 hours | 1.04 | 2.08 | 72.5
concentration: 102 (µM), S9 metabolic activation: with S9, exposure time: 3-4 hours | 0.52 | 1.39 | 54.4
concentration: 102 (µM), S9 metabolic activation: without S9, exposure time: 24 hours | 1.28 | 1.34 | 61.5
concentration: 128 (µM), S9 metabolic activation: with S9, exposure time: 3-4 hours | 1.05 | 2.77 | 56.7
concentration: 128 (µM), S9 metabolic activation: without S9, exposure time: 24 hours | 1.54 | 1.38 | 49.2
concentration: 160 (µM), S9 metabolic activation: with S9, exposure time: 3-4 hours | 1.41 | 2.66 | 60.6
concentration: 160 (µM), S9 metabolic activation: without S9, exposure time: 24 hours | 1.14 | 1.44 | 49.8
concentration: 200 (µM), S9 metabolic activation: with S9, exposure time: 3-4 hours | 1.85 | 2.37 | 68.6
concentration: 200 (µM), S9 metabolic activation: without S9, exposure time: 24 hours | – | – | 30.7

COC(=O)NC(=S)Nc1ccccc1NC(=S)NC(=O)OC [Thiophanate-methyl]
Conditions | hypodiploid nuclei frequency, CHO-K1 [1] [%] | micronucleus frequency, CHO-K1 [3] [%] | relative survival, CHO-K1 [2]
concentration: 4.5 (µM), S9 metabolic activation: with S9, exposure time: 3-4 hours | 0.32 | 1.82 | 86.7
concentration: 4.5 (µM), S9 metabolic activation: without S9, exposure time: 24 hours | 0.54 | 1.32 | 97.7
concentration: 5.63 (µM), S9 metabolic activation: with S9, exposure time: 3-4 hours | 0.26 | 2.43 | 91.5
concentration: 5.63 (µM), S9 metabolic activation: without S9, exposure time: 24 hours | 0.84 | 1.5 | 111
concentration: 7.04 (µM), S9 metabolic activation: with S9, exposure time: 3-4 hours | 0.36 | 1.64 | 76.1
concentration: 7.04 (µM), S9 metabolic activation: without S9, exposure time: 24 hours | 0.73 | 1.9 | 98.6
concentration: 8.8 (µM), S9 metabolic activation: with S9, exposure time: 3-4 hours | 0.26 | 1.66 | 82.1
concentration: 8.8 (µM), S9 metabolic activation: without S9, exposure time: 24 hours | 1.05 | 1.78 | 105
concentration: 11 (µM), S9 metabolic activation: with S9, exposure time: 3-4 hours | 0.28 | 1.98 | 86.6
concentration: 11 (µM), S9 metabolic activation: without S9, exposure time: 24 hours | 0.94 | 1.72 | 104
concentration: 13.7 (µM), S9 metabolic activation: with S9, exposure time: 3-4 hours | 0.3 | 2.01 | 95.1
concentration: 13.7 (µM), S9 metabolic activation: without S9, exposure time: 24 hours | 1 | 1.64 | 99.1
concentration: 17.2 (µM), S9 metabolic activation: with S9, exposure time: 3-4 hours | 0.17 | 1.77 | 92
concentration: 17.2 (µM), S9 metabolic activation: without S9, exposure time: 24 hours | 0.94 | 2.57 | 91.1
concentration: 21.5 (µM), S9 metabolic activation: with S9, exposure time: 3-4 hours | 0.2 | 1.56 | 99.9
concentration: 21.5 (µM), S9 metabolic activation: without S9, exposure time: 24 hours | 1.15 | 2.04 | 87.3
concentration: 26.8 (µM), S9 metabolic activation: with S9, exposure time: 3-4 hours | 0.29 | 1.07 | 87
concentration: 26.8 (µM), S9 metabolic activation: without S9, exposure time: 24 hours | 1.78 | 3.08 | 95.3
concentration: 33.6 (µM), S9 metabolic activation: with S9, exposure time: 3-4 hours | 0.18 | 1.17 | 91.2
concentration: 33.6 (µM), S9 metabolic activation: without S9, exposure time: 24 hours | 2.52 | 4.3 | 97.2
concentration: 41.9 (µM), S9 metabolic activation: with S9, exposure time: 3-4 hours | 0.28 | 1.51 | 76.7
concentration: 41.9 (µM), S9 metabolic activation: without S9, exposure time: 24 hours | 4.17 | 6.07 | 76.9
concentration: 52.4 (µM), S9 metabolic activation: with S9, exposure time: 3-4 hours | 0.28 | 1.64 | 92.9
concentration: 52.4 (µM), S9 metabolic activation: without S9, exposure time: 24 hours | 6.62 | 9.82 | 78.6
concentration: 65.5 (µM), S9 metabolic activation: with S9, exposure time: 3-4 hours | 0.26 | 1.36 | 93.9
concentration: 65.5 (µM), S9 metabolic activation: without S9, exposure time: 24 hours | 10.1 | 14.7 | 77.3
concentration: 81.9 (µM), S9 metabolic activation: with S9, exposure time: 3-4 hours | 0.25 | 1.4 | 90.9
concentration: 81.9 (µM), S9 metabolic activation: without S9, exposure time: 24 hours | 14.6 | 20 | 71.5
concentration: 102 (µM), S9 metabolic activation: with S9, exposure time: 3-4 hours | 0.2 | 1.54 | 91
concentration: 102 (µM), S9 metabolic activation: without S9, exposure time: 24 hours | 17.7 | 23.3 | 72.3
concentration: 128 (µM), S9 metabolic activation: with S9, exposure time: 3-4 hours | 0.27 | 1.81 | 89.3
concentration: 128 (µM), S9 metabolic activation: without S9, exposure time: 24 hours | 19.6 | 29 | 69.2
concentration: 160 (µM), S9 metabolic activation: with S9, exposure time: 3-4 hours | 0.17 | 1.74 | 96.4
concentration: 160 (µM), S9 metabolic activation: without S9, exposure time: 24 hours | 20.5 | 32.7 | 56.2
concentration: 200 (µM), S9 metabolic activation: with S9, exposure time: 3-4 hours | 0.31 | 1.51 | 89.7
concentration: 200 (µM), S9 metabolic activation: without S9, exposure time: 24 hours | 18.13 | 37.7 | 47.8
